These results are taken from PMC6345584.

The chains behind the UniProt entries cited, without tags or fusion partners.
UniProt Q96AC1: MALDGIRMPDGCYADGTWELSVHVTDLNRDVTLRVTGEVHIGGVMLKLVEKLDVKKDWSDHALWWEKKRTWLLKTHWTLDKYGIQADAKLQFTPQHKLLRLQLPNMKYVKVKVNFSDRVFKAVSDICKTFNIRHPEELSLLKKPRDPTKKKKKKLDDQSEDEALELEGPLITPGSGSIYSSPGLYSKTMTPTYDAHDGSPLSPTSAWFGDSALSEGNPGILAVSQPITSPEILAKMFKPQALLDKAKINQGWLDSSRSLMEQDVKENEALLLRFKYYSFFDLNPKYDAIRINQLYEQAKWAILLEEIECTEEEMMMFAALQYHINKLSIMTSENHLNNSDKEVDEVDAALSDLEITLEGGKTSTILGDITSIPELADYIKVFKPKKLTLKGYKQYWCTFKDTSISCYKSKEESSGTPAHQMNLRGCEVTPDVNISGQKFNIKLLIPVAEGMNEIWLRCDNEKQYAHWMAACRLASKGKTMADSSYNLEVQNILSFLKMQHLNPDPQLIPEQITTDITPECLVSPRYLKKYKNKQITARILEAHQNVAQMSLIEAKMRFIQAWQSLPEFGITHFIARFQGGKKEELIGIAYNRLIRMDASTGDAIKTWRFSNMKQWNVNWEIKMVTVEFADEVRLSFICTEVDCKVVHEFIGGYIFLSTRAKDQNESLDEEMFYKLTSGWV

Assay [1] concerns the target epidermal growth factor receptor (endogenous, human keratinocytes) (human (endogenous in keratinocytes)) (UniProt P00533). Nature of the assay: co-IP; IP of endogenous EGFR from KS cells re-expressing mCherry-kindlin-1, starved or after EGF stimulation (10 ng/ml) over time.
Assay [2] addresses T1, Full-length GST-kindlin-1 (UniProt Q9BQL6).
T1 sequence: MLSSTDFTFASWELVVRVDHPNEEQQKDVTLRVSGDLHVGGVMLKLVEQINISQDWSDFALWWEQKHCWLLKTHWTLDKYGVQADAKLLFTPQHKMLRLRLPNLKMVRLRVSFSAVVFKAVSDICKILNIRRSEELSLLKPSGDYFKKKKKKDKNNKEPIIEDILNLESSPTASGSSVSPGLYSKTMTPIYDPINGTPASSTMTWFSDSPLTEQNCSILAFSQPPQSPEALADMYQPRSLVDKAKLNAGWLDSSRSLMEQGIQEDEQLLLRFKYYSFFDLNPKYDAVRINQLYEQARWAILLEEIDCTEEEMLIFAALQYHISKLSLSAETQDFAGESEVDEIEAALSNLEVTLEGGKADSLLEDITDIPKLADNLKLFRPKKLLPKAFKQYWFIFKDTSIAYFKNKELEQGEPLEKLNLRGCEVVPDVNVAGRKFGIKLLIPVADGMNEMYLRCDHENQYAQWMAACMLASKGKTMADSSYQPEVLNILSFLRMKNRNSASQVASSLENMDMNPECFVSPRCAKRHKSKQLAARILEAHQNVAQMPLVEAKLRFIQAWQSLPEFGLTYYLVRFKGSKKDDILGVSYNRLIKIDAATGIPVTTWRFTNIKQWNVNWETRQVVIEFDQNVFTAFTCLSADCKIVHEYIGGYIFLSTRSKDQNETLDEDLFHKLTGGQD
As to the kind of experiment: pull-down; GST-kindlin-1 full length or domains on glutathione Sepharose beads, endogenous EGFR from WT keratinocyte lysate, immunoblot for EGFR; only the target purified.

A further assay has as its target EGFR-GFP (UniProt P00533). Nature of the assay: FRET or BRET; FRET by fluorescence lifetime imaging microscopy in fixed KS keratinocytes expressing EGFR-GFP (donor) and mCherry-kindlin-1 (acceptor), with or without EGF stimulation.

Changes are numbered by the printed parent chain. These are yes or no findings as the source states them, for the method shown. Binding seen in cells or lysates may run through a third protein. Some results given as binding are weak or reduced against the parent protein; the word gives no strength. For some assays here: Tags and fused reporters may be left off the sequences shown.

In the case of “kindlin-2 (endogenous, KS keratinocytes) (from UniProt Q96AC1 1-680)”, the binding result in assay [1] is listed as “no binding”.

Consider “epidermal growth factor receptor (endogenous, human keratinocytes) (from UniProt P00533 25-1210)”, for which the binding result in assay [2] is on record as “binds”.

B1: mCherry-kindlin-1 (protein, UniProt Q9BQL6 1-677)
chain: T1 sequence
For the molecule B1, the binding entry (in the assay with EGFR-GFP; in assay [1]) was “binds” in each case.

B2: mCherry-W612Akindlin-1 (protein, UniProt Q9BQL6 1-677)
chain: T1 sequence with W612A
Turning to B2, in the assay with EGFR-GFP, the binding result is recorded as “binds”.
